# Measured values published in the supplement of paper PMC8728848.
# This is one part of the list.
# Key:
# Assay in all cases: glycan array binding signal (z-score within array); higher = stronger binding
# Conditions in all cases: glycan notation: IUPAC condensed, linker removed
# [1] = biological target: Gal(a1-3)[Gal(a1-4)]Gal(b1-4)GlcNAc
# Outline: (§1)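 Columns mapping to the same glycan were averaged after glycan names were converted to IUPAC-condensed notation. The data come from 3228 arrays in the Consortium for Functional Glycomics database, limited to those with an available protein sequence. Binding is reported as a within-array Z-score averaged across arrays of one protein sequence and across linkers.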
# [2] = biological target: Gal(a1-4)Gal(b1-3)GlcNAc(b1-2)Man(a1-3)[Gal(a1-4)Gal(b1-3)GlcNAc(b1-2)Man(a1-6)]Man(b1-4)GlcNAc(b1-4)GlcNAc
# Outline: as §1
# Gal(a1-4)Gal(b1-4)Glc = biological target: Gal(a1-4)Gal(b1-4)Glc
# Outline: as §1
# Gal(a1-4)Gal(b1-4)GlcNAc = biological target: Gal(a1-4)Gal(b1-4)GlcNAc
# Outline: as §1
# [3] = biological target: Gal(a1-4)Gal(b1-4)GlcNAc(b1-2)Man(a1-3)[Gal(a1-4)Gal(b1-4)GlcNAc(b1-2)Man(a1-6)]Man(b1-4)GlcNAc(b1-4)GlcNAc
# Outline: as §1
# [4] = biological target: Gal(a1-4)Gal(b1-4)GlcNAc(b1-3)Gal(b1-4)Glc
# Outline: as §1
# Gal(a1-4)GlcNAc = biological target: Gal(a1-4)GlcNAc
# Outline: as §1
# Gal(a1-6)Glc = biological target: Gal(a1-6)Glc
# Outline: as §1
# Gal(b1-2)Gal = biological target: Gal(b1-2)Gal
# Outline: as §1
# Gal(b1-3)Gal = biological target: Gal(b1-3)Gal
# Outline: as §1
# Gal(b1-3)Gal(b1-4)GlcNAc = biological target: Gal(b1-3)Gal(b1-4)GlcNAc
# Outline: as §1
# Gal(b1-3)GalNAc = biological target: Gal(b1-3)GalNAc
# Outline: as §1
# [5] = biological target: Gal(b1-3)GalNAc(a1-3)[Fuc(a1-2)]Gal(b1-4)Glc
# Outline: as §1
# [6] = biological target: Gal(b1-3)GalNAc(a1-3)[Fuc(a1-2)]Gal(b1-4)GlcNAc
# Outline: as §1
# Gal(b1-3)GalNAc(b1-3)Gal = biological target: Gal(b1-3)GalNAc(b1-3)Gal
# Outline: as §1
# [7] = biological target: Gal(b1-3)GalNAc(b1-3)Gal(a1-4)Gal(b1-4)Glc
# Outline: as §1
# [8] = biological target: Gal(b1-3)GalNAc(b1-4)Gal(b1-4)Glc
# Outline: as §1
# [9] = biological target: Gal(b1-3)GalNAc(b1-4)[Neu5Ac(a2-3)]Gal(b1-4)Glc
# Outline: as §1
# Gal(b1-3)GlcNAc = biological target: Gal(b1-3)GlcNAc
# Outline: as §1
# [10] = biological target: Gal(b1-3)GlcNAc(a1-3)Gal(b1-4)GlcNAc
# Outline: as §1
# [11] = biological target: Gal(b1-3)GlcNAc(a1-6)Gal(b1-4)GlcNAc
# Outline: as §1
# Gal(b1-3)GlcNAc(b1-2)Man = biological target: Gal(b1-3)GlcNAc(b1-2)Man
# Outline: as §1
# [12] = biological target: Gal(b1-3)GlcNAc(b1-2)Man(a1-3)[Gal(b1-3)GlcNAc(b1-2)Man(a1-6)]Man(b1-4)GlcNAc(b1-4)GlcNAc
# Outline: as §1
# [13] = biological target: Gal(b1-3)GlcNAc(b1-2)Man(a1-3)[Gal(b1-3)GlcNAc(b1-2)Man(a1-6)]Man(b1-4)GlcNAc(b1-4)[Fuc(a1-6)]GlcNAc
# Outline: as §1
# [14] = biological target: Gal(b1-3)GlcNAc(b1-2)Man(a1-3)[GlcNAc(b1-4)][Gal(b1-3)GlcNAc(b1-2)Man(a1-6)]Man(b1-4)GlcNAc(b1-4)GlcNAc
# Outline: as §1
# [15] = biological target: Gal(b1-3)GlcNAc(b1-2)[Gal(b1-3)GlcNAc(b1-6)]Man(a1-6)[Gal(b1-3)GlcNAc(b1-2)Man(a1-3)]Man(b1-4)GlcNAc(b1-4)GlcNAc
# Outline: as §1
# [16] = biological target: Gal(b1-3)GlcNAc(b1-3)Gal(b1-3)GlcNAc
# Outline: as §1
# [17] = biological target: Gal(b1-3)GlcNAc(b1-3)Gal(b1-4)Glc
# Outline: as §1
# [18] = biological target: Gal(b1-3)GlcNAc(b1-3)Gal(b1-4)GlcNAc
# Outline: as §1
# [19] = biological target: Gal(b1-3)GlcNAc(b1-3)Gal(b1-4)GlcNAc(b1-2)Man(a1-3)[Gal(b1-3)GlcNAc(b1-3)Gal(b1-4)GlcNAc(b1-2)Man(a1-6)]Man(b1-4)GlcNAc(b1-4)GlcNAc
# Outline: as §1
# [20] = biological target: Gal(b1-3)GlcNAc(b1-3)Gal(b1-4)GlcNAc(b1-2)[Gal(b1-3)GlcNAc(b1-3)Gal(b1-4)GlcNAc(b1-6)]Man(a1-6)[Gal(b1-3)GlcNAc(b1-3)Gal(b1-4)GlcNAc(b1-2)Man(a1-3)]Man(b1-4)GlcNAc(b1-4)[Fuc(a1-6)]GlcNAc
# Outline: as §1
# [21] = biological target: Gal(b1-3)GlcNAc(b1-3)Gal(b1-4)GlcNAc(b1-3)Gal(b1-4)GlcNAc(b1-2)[Gal(b1-3)GlcNAc(b1-3)Gal(b1-4)GlcNAc(b1-3)Gal(b1-4)GlcNAc(b1-6)]Man(a1-6)[Gal(b1-3)GlcNAc(b1-3)Gal(b1-4)GlcNAc(b1-3)Gal(b1-4)GlcNAc(b1-2)Man(a1-3)]Man(b1-4)GlcNAc(b1-4)[Fuc(a1-6)]GlcNAc
# Outline: as §1
# [22] = biological target: Gal(b1-3)GlcNAc(b1-3)Gal(b1-4)GlcNAc(b1-6)[Gal(b1-3)GlcNAc(b1-3)]Gal(b1-4)Glc
# Outline: as §1
# [23] = biological target: Gal(b1-3)GlcNAc(b1-3)Gal(b1-4)[Fuc(a1-3)]GlcNAc
# Outline: as §1
# [24] = biological target: Gal(b1-3)GlcNAc(b1-3)Gal(b1-4)[Fuc(a1-3)]GlcNAc(b1-6)[Gal(b1-3)GlcNAc(b1-3)]Gal(b1-4)Glc
# Outline: as §1
# [25] = biological target: Gal(b1-3)GlcNAc(b1-3)GalNAc
# Outline: as §1
# [26] = biological target: Gal(b1-3)GlcNAc(b1-6)Gal(b1-4)GlcNAc
# Outline: as §1
# [27] = biological target: Gal(b1-3)GlcNAc(b1-6)GalNAc
# Outline: as §1
binder,measurement,setting,value
SP16665A-bot-344-23-344 (Bacteroides ovatus) (protein) SDNEFPDFDYQTVYFANQYGLRTIELGESEFVDNTLDNQHKMVIKAAWGGGYTNRNNVVINFKVDESLCDNLYFKDTDQPLVPMPASYYTLASDRIAIPKGQIMAGVEVQLTDDFFADEKSISENYVIPLLMTNVQGADSILQGKPVVENPVLTNAGDWSILPQNFVLYAVKYVNPWHGEYLRRGIDHATVAGTSKDIIRHEQFVENDEVVNISTKSMKDNLLTLKTKDESGKDISYTVRLSFAEDGSCTVHSGSQNVVVSGSGKFVSKGEKNSLGGKDRNAIYLDYTVNLTDNNIQLATKDTLVLRTRNVYGGKSLEVVRK,glycan array binding signal (z-score),[1],1.28
same,glycan array binding signal (z-score),[2],-0.247
same,glycan array binding signal (z-score),Gal(a1-4)Gal(b1-4)Glc,0.739
same,glycan array binding signal (z-score),Gal(a1-4)Gal(b1-4)GlcNAc,0.261
same,glycan array binding signal (z-score),[3],0.55
same,glycan array binding signal (z-score),[4],-0.507
same,glycan array binding signal (z-score),Gal(a1-4)GlcNAc,0.096
same,glycan array binding signal (z-score),Gal(a1-6)Glc,0.432
same,glycan array binding signal (z-score),Gal(b1-2)Gal,0.055
same,glycan array binding signal (z-score),Gal(b1-3)Gal,0.251
same,glycan array binding signal (z-score),Gal(b1-3)Gal(b1-4)GlcNAc,-0.593
same,glycan array binding signal (z-score),Gal(b1-3)GalNAc,-0.057
same,glycan array binding signal (z-score),[5],-0.521
same,glycan array binding signal (z-score),[6],-0.695
same,glycan array binding signal (z-score),Gal(b1-3)GalNAc(b1-3)Gal,-0.698
same,glycan array binding signal (z-score),[7],-0.489
same,glycan array binding signal (z-score),[8],-0.149
same,glycan array binding signal (z-score),[9],-0.5
same,glycan array binding signal (z-score),Gal(b1-3)GlcNAc,0.061
same,glycan array binding signal (z-score),[10],0.217
same,glycan array binding signal (z-score),[11],-0.414
same,glycan array binding signal (z-score),Gal(b1-3)GlcNAc(b1-2)Man,2.76
same,glycan array binding signal (z-score),[12],0.261
same,glycan array binding signal (z-score),[13],-0.152
same,glycan array binding signal (z-score),[14],-0.153
same,glycan array binding signal (z-score),[15],-0.325
same,glycan array binding signal (z-score),[16],0.024
same,glycan array binding signal (z-score),[17],-0.437
same,glycan array binding signal (z-score),[18],0.03
same,glycan array binding signal (z-score),[19],0.086
same,glycan array binding signal (z-score),[20],0.558
same,glycan array binding signal (z-score),[21],0.752
same,glycan array binding signal (z-score),[22],0.016
same,glycan array binding signal (z-score),[23],-0.575
same,glycan array binding signal (z-score),[24],0.183
same,glycan array binding signal (z-score),[25],0.029
same,glycan array binding signal (z-score),[26],-0.558
same,glycan array binding signal (z-score),[27],0.162
